# Test results taken from the supplement of paper PMC3334620.
# In all, about 33,000 sequences were measured (“E-score (-0.5 to 0.5)”: median about -0.04, highest 2% from about 0.36 on). The list shows a part of the results.
# Molecular target: T1, Hmlalpha2 (UniProt P0CY09)
# T1 sequence: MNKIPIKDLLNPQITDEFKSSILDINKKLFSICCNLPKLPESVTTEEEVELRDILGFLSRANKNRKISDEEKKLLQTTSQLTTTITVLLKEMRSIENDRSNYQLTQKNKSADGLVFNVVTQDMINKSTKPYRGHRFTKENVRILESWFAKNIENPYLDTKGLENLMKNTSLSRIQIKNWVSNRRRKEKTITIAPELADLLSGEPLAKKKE
# Assay: PBM E-score (8-mer binding enrichment) (E-score (-0.5 to 0.5)); higher = stronger / more preferred TF binding; most listed sequences are background and not binding sites
# Details: protein concentration: 200 nM; construct: GST-full length
# Outline: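 The E-score, a modified Wilcoxon-Mann-Whitney statistic, was computed by the Universal PBM Analysis Suite for every ungapped eight-base word pooled with its reverse complement. Scans behind it were normalised with masliner after bound GST-tagged yeast transcription factors were detected with fluorescent anti-GST. The proteins, at about 100-200 nM, had been applied to universal all-10-mer Agilent arrays made double-stranded by primer extension.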
row,Sequence,PBM E-score
1,TATAGGGA,-0.126
2,TATTCCCA,-0.0559
3,CAGAGTCA,-0.197
4,AGATGGTC,-0.0916
5,CGATCTTC,-0.257
6,AACTACGG,-0.155
7,CCCCGTTA,-0.145
8,AACGCTCT,-0.136
9,CAGCCCAG,-0.352
10,AGGAGGTC,-0.21
11,CTTACAAG,0.312
12,AAATTTGA,0.143
13,ACATACCT,0.303
14,GCGATTCC,-0.25
15,GTACTGAC,-0.0294
16,AAATGCCG,-0.02
17,TCGGAGCA,-0.279
18,CCGAACCA,-0.278
19,ACCTGAGA,-0.096
20,AGCCCGCA,-0.0978
21,AATGATTC,0.00129
22,CCCTCTAC,-0.09
23,ACCGACCC,-0.173
24,GAGCCCGA,-0.102
25,ACCGCAGT,-0.0348

row,Sequence,PBM E-score
1,AACCACTG,-0.0413
2,AAAAGGAC,-0.0292
3,GAGATTGC,-0.216
4,AGCGTAGC,-0.0881
5,AATAGCGG,-0.132
6,GAGTATTA,0.213
7,GCAGAGTA,0.154
8,CTCCGCCC,-0.264
9,CCTTCGTC,-0.0859
10,CAAACGGC,-0.304
11,CCTGTGAC,0.0291
12,ATTGAAGG,0.0709
13,CCGGCATC,-0.271
14,AAGCTGAC,-0.0181
15,CTATAGTC,0.0177
16,CAACACCG,0.0242
17,AACCGTAT,-0.112
18,ATTCCTCG,0.0272
19,AAGAGTAA,0.277
20,ACTTACAA,0.29
21,CGTAATCA,0.367
22,AGTGTCTA,0.14
23,CCGCCCCA,-0.0198
24,ACTCCCCA,0.0124
25,CTTACTCC,-0.0246

row,Sequence,PBM E-score
1,GTGGCAAC,0.0116
2,ATGGGTAA,0.117
3,CCCTATGC,-0.258
4,AGAAAGCG,-0.00586
5,ACTTCGGA,0.0225
6,AGGCGACT,-0.26
7,CCTAAGGA,-0.22
8,CTGGTCAA,-0.0353
9,CTAGACCA,-0.262
10,CGGCCTGA,-0.338
11,AAGCGGCC,-0.194
12,ATTTAGAA,0.0643
13,CCGTACCG,-0.262
14,ATATTATA,0.193
15,ATACACCG,0.145
16,ACGGAAGA,0.114
17,CCGGTCTA,-0.22
18,AGGAGCTC,-0.217
19,AACCATTA,0.229
20,CAGGTCTA,-0.12
21,AGACCATC,-0.23
22,GAGGATGA,-0.145
23,CACTCCTC,-0.217
24,CTACGACC,-0.116
25,AGCTCCGG,-0.188

row,Sequence,PBM E-score
1,GACAAAGA,0.111
2,GGCACAAA,0.0169
3,CAGTGTAA,0.343
4,CACGAGCG,-0.00918
5,GGACCCAC,-0.244
6,CTGATACC,-0.15
7,GACTCATA,-0.141
8,AGAAATCG,-0.0591
9,TCGCGTAA,0.45
10,CGGCGCTC,-0.173
11,CTTCTCCC,-0.241
12,AGTCTCGA,-0.0296
13,GTCCAGCA,-0.148
14,CGGTGCTC,-0.0964
15,ATAATACG,0.239
16,AACGGAAA,-0.0341
17,CACTCACG,0.0729
18,ACATACTG,0.238
19,CAGGCCCG,-0.285
20,CTTTTGAA,-0.0152
21,CCTAATCG,-0.0771
22,CTTGGAGA,-0.0945
23,CGCGAAAA,0.0338
24,AGTTAAGC,0.176
25,ACTAACAC,0.293

row,Sequence,PBM E-score
1,AAGTCTCA,-0.155
2,AAAGATAG,-0.026
3,CTAATGAA,0.0377
4,AACGCATC,0.0778
5,ACCAGTAC,-0.0431
6,CACGCACC,0.111
7,ACTAGGCT,0.0347
8,CCTTCTAG,-0.215
9,CTGTCTGC,-0.191
10,AGGCTAGA,-0.208
11,CTCAACCA,0.0306
12,CGACCCCA,-0.0768
13,ACGGTTGG,-0.144
14,CTCATCAA,-0.127
15,CGATAGCA,-0.0905
16,ATGATCTA,0.13
17,ATTCGCTA,0.0939
18,AAACCGTA,0.0514
19,AATCATCC,0.0141
20,AGGGCGCC,-0.241
21,GATATAGA,-0.0128
22,CATACGGC,-0.079
23,CAGGCTTA,-0.146
24,TAAACCTA,0.118
25,TCCGTAGA,-0.144

row,Sequence,PBM E-score
1,ACGGTAGG,-0.176
2,AGGTCACT,-0.133
3,AGCGAACC,-0.00909
4,CTGGGTAC,-0.172
5,AGTGGAAC,-0.0118
6,CCCAGCGG,-0.199
7,ATTGGGCC,-0.15
8,CGGCATTA,0.118
9,TCGTACGA,0.11
10,GCCTTCCC,-0.304
11,GCATGGCC,-0.0405
12,ATATAATC,0.149
13,AACCACGG,-0.23
14,CTGGGGGA,-0.422
15,CAATGGGG,-0.166
16,CATAGTTC,0.0145
17,CGAACACC,-0.105
18,AGGAGGAC,-0.269
19,CCGCTCTA,0.0597
20,AACAAAAT,0.193
21,CAGGCTCC,-0.267
22,AATACGAG,0.229
23,AATGAACG,0.139
24,AACCTACC,-0.247
25,AACCATCC,-0.135

row,Sequence,PBM E-score
1,ACTATCGC,-0.079
2,TATAAAGA,0.0402
3,CCCGGCCC,-0.261
4,ACTAAGTC,-0.157
5,CTTCTTAC,0.046
6,GCCAATAA,0.0351
7,AAAGCTGT,-0.0214
8,CAGCCCAC,-0.0566
9,AGCTAGGG,-0.204
10,ACTCTCGA,0.093
11,ACCCTATG,-0.0103
12,CGTATTAA,0.268
13,ACAGTCCG,-0.117
14,GCGGGGCC,-0.242
15,GCTCGAAA,-0.297
16,CAACCGAG,-0.249
17,GCACGCCA,-0.337
18,ATTGTTCG,0.242
19,GCGGCGCC,-0.0408
20,TCTCTAAA,-0.118
21,CAGCGAAG,-0.136
22,GACCTCAA,-0.067
